Measurements: patent US6887983B2, “Purified 20 kDA presenilin 2 C-terminal fragment and methods of screening for compounds that inhibit proteolysis of presenilin 2” (The General Hospital Corporation, priority 1997, dated 2005)

Assays:
[1] = tested on: full-length 54 kDa PS2 cleavage; assay: Cleavage of full-length PS2 during etoposide-induced apoptosis in inducible H4 cells (N-terminal FLAG PS2); type: cell-based, human; settings: 20 μM etoposide
Method: FIG. 8. Cleavage of full-length 54 kDa PS2 by a zVAD-sensitive protease activated during etoposide-induced apoptosis. Inducible H4 cells expressing PS2 containing N-terminal FLAG epitope were induced for 12 hours and further incubated with media containing 20 μM etoposide. Alternative (34 kDa NTF) and normal (f; 30 kDa) N-terminal cleavage products detected by anti-FLAG antibody and alternative (20K CTF) and endogenous plus normal C-terminal cleavage products (e/f) detected by αPS2Loop were indicated by arrows.
Thus, whether the alternative PS2-CTF was generated from full-length 54 kDa PS2 during apoptosis was tested. […] The alternative NTF was 34 kDa while the “normal” NTF, labeled as band f in the top panel of FIG. 8, was 30 kDa. The alternative PS2 cleavage fragments were first observed at 3 hours post-treatment with etoposide.

[2] = tested on: endogenous PS1 cleavage; assay: Apoptosis-associated cleavage of endogenous PS1 in H4 cells; type: cell-based, human
Method: FIG. 11. […] Inducible PS1 cells were generated similar to as described herein. High-(clone 1.22) and low-(clone 1.24) expressing clones were grown in the presence or absence of tetracycline for 24 hours. […] Identical samples used for FIG. 8 were stained with αPS1 Loop. […] Asterisk indicates non-specific bands.
Whether endogenous PS1 is cleaved by CP32-like proteases following induction of apoptosis was also tested.

[3] = tested on: generation of alternative 14 kDa PS1-CTF; assay: Generation of alternative 14 kDa PS1-CTF in inducible H4 cells overexpressing PS1; type: cell-based, human; settings: PS1-overexpressing cell lines
Method: FIG. 11. […] Inducible PS1 cells were generated similar to as described herein. High-(clone 1.22) and low-(clone 1.24) expressing clones were grown in the presence or absence of tetracycline for 24 hours. As similar to those shown for PS2, multiple PS1 CTFs were detected in the PS 1-overproducing cells, including 23 kDa endogenous PS1 CTF (arrow e′), transgene-derived normal cleavage product (arrow f′), and aberrant 14 kDa PS1 fragment. (b, c, d) Cleavage of endogenous PS1 CTF during STS-induced apoptosis. Identical samples used for FIG. 8 were stained with αPS1 Loop. PS1 CTF was further cleaved into smaller 14 kDa fragment during apoptotic process. […] Asterisk indicates non-specific bands.
The point mutations in the potential aspartate cleavage sites of PS2 (D326A and D329A) and control aspartate (D308A) were introduced into a PS2 open reading frame by site-directed mutagenesis using Muta-Gene phagemid kit (BioRad). The inducible construct encoding the full-length PS1 with 3′ FLAG epitope sequence was generated as described for PS2 herein. […]
Next, whether PS1, a closely related homologue of PS2, also undergoes alternative cleavage when overexpressed and/or during apoptosis was tested. […] However, in the clonal cell line expressing lower levels of PS1 (clone IF24), full-length PS1 and the normal CTF were predominantly detected while the alternative 14 kDa CTF fragment was not detectable.

[4] = tested on: generation of the 20 kDa PS2-CTF; assay: Generation of 20 kDa PS2-CTF in H4 cells overexpressing PS2, Western blot with αPS2Loop; settings: cells overexpressing PS2, induced 24 h, inhibitor added at induction; FIG. 7d
[5] = tested on: endogenous PS2 cleavage in H4 human neuroglioma cells; assay: Apoptotic cleavage of endogenous PS2 in untransfected H4 cells (staurosporine or etoposide), Western blot

Row | SMILES | time at which alternative PS2 cleavage fragments were first observed post-treatment [1] [h] | generation of alternative 20 kDa CTF and alternative N-terminal fragment (NTF) ([1]; low-expressing inducible H4 line, 12 h post-induction, FIG. 8) | generation of the 14 kDa PS1-CTF on induction of apoptosis ([2]; H4 cells, FIG. 11b, 11d) | phosphorylation of the endogenous PS1 CTF ([2]; H4 cells, FIG. 11b, 11d) | generation of alternative 14 kDa PS1-CTF [3] | apoptosis-associated cleavage of endogenous PS1 ([2]; STS- or etoposide-induced, FIGS. 11c and 11d) | generation of the 20 kDa PS2-CTF [4] | concentration equally effective in inhibiting apoptosis-induced cleavage of PS2 ([5]; 1 μM STS 18 h, relative amount of 20 kDa fragment, FIG. 9e) [µM] | normal processing of PS2 (generation of 25 kDa endogenous fragment) ([5]; H4 cells undergoing apoptosis) | alternative cleavage of endogenous PS2 during staurosporine-induced or etoposide-induced apoptosis ([5]; H4 cells, inhibitor pre-treatment 1 h, 2 μM STS or 20 μM etoposide 18 h, FIGS. 9b-9d)
1 | COc1cc([C@@H]2c3cc4c(cc3[C@@H](O[C@@H]3O[C@@H]5CO[C@@H](C)O[C@H]5[C@H](O)[C@H]3O)[C@H]3COC(=O)[C@H]23)OCO4)cc(OC)c1O [etoposide] | 3 | the alternative 20 kDa CTF as well as the corresponding alternative N-terminal fragment (NTF) were generated | led to the generation of the 14 kDa CTF | did not block phosphorylation of the endogenous PS1-CTF | – | – | – | – | – | –
2 | COC(=O)CC[C@H](NC(=O)[C@H](CC(=O)OC)NC(=O)OCc1ccccc1)C(=O)N[C@H](C(=O)N[C@@H](CC(=O)OC)C(=O)CF)C(C)C [zDEVD-fmk] | – | – | – | – | blocked | blocked | blocked | 100 | no effect on normal processing of PS2 | specifically blocked
